From a collection of fitness landscapes (doi:10.1016/j.celrep.2020.107928)
Whole data set: some 81,000 sequences, median “one-hybrid fitness for binding parS DNA” near -0.17, cut for the highest 2% near 0.51. The list shows a part of the results.

B1: Caulobacter ParB omega fusion; a variant is named by its letters at X, in order, B8GW30 (parent)
chain: MESVVVGEPGMSEGRRGLGRGLSALLGEVDAAPAQAPGEQLGGSREAPIEILQRNPDQPRRTFREEDLEDLSNSIREKGVLQPILVRPSPDTAGEYQIVAGERAWRAAQRAGLKTVPIMVRELDDLAVLEIGIIENVQRADLNVLEEALSYKVLMEKFERTQENIAQTIGKSXSHVANXMRLLXLPDEVQSYLVSGELTAXHARAIAAAADPVALAKQIIEGGLSVRETEALARKAPNLSAGKSKGGRPPRVKDTDTQALESDLSSVLGLDVSIDHRGSTGTLTITYATLEQLDDLCNRLTRGI

Variants of: B1
Test: one-hybrid fitness for binding parS DNA (scaled: cognate 1, non-cognate 0); higher = stronger binding
Details: with parS DNA site
Outline: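 In E. coli USO, a HIS3 reporter with its site placed 19 bp from the promoter was used to select Caulobacter ParB variants randomised at four specificity codons. Growth lasted 48 hours at 37°C on histidine-free M9 containing 0.1 mM IPTG and 5 mM 3-AT. Fitness was taken as the log change in variant-to-wild-type read ratio from Illumina sequencing of pre- and post-selection plasmids, rescaled between the non-cognate and cognate sites.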

Row | Variant | one-hybrid fitness for binding parS DNA
1 | MHNM | ≤ 0.2
2 | IMQG | ≤ 0.2
3 | ATSD | ≤ 0.2
4 | VQPN | ≤ 0.2
5 | HSLR | ≤ 0.2
6 | RDLC | ≤ 0.2
7 | PPSI | ≤ 0.2
8 | EYIM | 0.237
9 | KAAV | ≤ 0.2
10 | TPYA | ≤ 0.2
11 | HAFI | ≤ 0.2
12 | GKPN | ≤ 0.2
13 | RNHY | 0.361
14 | YQRS | ≤ 0.2
15 | TFSV | ≤ 0.2
16 | DNAY | ≤ 0.2
17 | TYQE | ≤ 0.2
18 | AQIT | ≤ 0.2
19 | PHAY | ≤ 0.2
20 | VAVS | ≤ 0.2
21 | HHPK | ≤ 0.2

Row | Variant | one-hybrid fitness for binding parS DNA
22 | YPGL | ≤ 0.2
23 | WFSS | ≤ 0.2
24 | HRNV | ≤ 0.2
25 | PMEG | ≤ 0.2
26 | TLAG | ≤ 0.2
27 | GSRS | ≤ 0.2
28 | PHFC | ≤ 0.2
29 | KVER | ≤ 0.2
30 | YSWG | ≤ 0.2
31 | PTYV | ≤ 0.2
32 | VAPC | ≤ 0.2
33 | DSTY | ≤ 0.2
34 | QRVT | ≤ 0.2
35 | TLQK | ≤ 0.2
36 | HADK | ≤ 0.2
37 | MDYT | ≤ 0.2
38 | FLMS | ≤ 0.2
39 | TPSM | ≤ 0.2
40 | WVNR | ≤ 0.2
41 | GNAS | ≤ 0.2
42 | SLLV | ≤ 0.2

Row | Variant | one-hybrid fitness for binding parS DNA
43 | QELA | ≤ 0.2
44 | PQRH | ≤ 0.2
45 | HYKG | ≤ 0.2
46 | SLME | ≤ 0.2
47 | AILP | ≤ 0.2
48 | SWRY | ≤ 0.2
49 | GSNL | ≤ 0.2
50 | FCGG | ≤ 0.2
51 | YWNW | ≤ 0.2
52 | DWNR | ≤ 0.2
53 | CRRS | ≤ 0.2
54 | ERAS | ≤ 0.2
55 | TSHG | ≤ 0.2
56 | MHDY | ≤ 0.2
57 | ESGT | ≤ 0.2
58 | QYYS | ≤ 0.2
59 | NMWY | ≤ 0.2
60 | AVSL | ≤ 0.2
61 | IRMR | ≤ 0.2
62 | HMHR | ≤ 0.2
63 | ATYL | ≤ 0.2

Row | Variant | one-hybrid fitness for binding parS DNA
64 | HTGM | ≤ 0.2
65 | FQRT | ≤ 0.2
66 | PDWR | ≤ 0.2
67 | VKLS | ≤ 0.2
68 | PRHT | ≤ 0.2
69 | YHNW | ≤ 0.2
70 | GCKS | ≤ 0.2
71 | DYRS | ≤ 0.2
72 | FVKS | ≤ 0.2
73 | QCNY | ≤ 0.2
74 | NMLD | ≤ 0.2
75 | YKCG | ≤ 0.2
76 | EDKT | ≤ 0.2
77 | HSNG | ≤ 0.2
78 | KRYC | ≤ 0.2
79 | QSYQ | ≤ 0.2
80 | CTHP | ≤ 0.2
81 | TRMS | ≤ 0.2
82 | SMGA | ≤ 0.2
83 | LTAH | ≤ 0.2
84 | QTWC | ≤ 0.2
